Results published in PubChem BioAssay AID1030 (National Center for Advancing Translational Sciences (NCATS), 2008).
The whole screen tested about 220,000 compounds, of which about 16,000 (7.3%) were called active. The shares of active, inactive and inconclusive entries below differ from those in the screen. Calls follow the shape of the dose curve; as a rule, active = well fitted inhibition curve with a large enough effect (not every such curve was filed as active); inconclusive = small, poorly fitted or top-dose-only effect, or another doubt; inactive = no such curve, though single readings can be large or run the other way. Potencies of inconclusive entries are left out as doubtful fits.

target: Aldehyde dehydrogenase 1A1 (Homo sapiens) (UniProt P00352); assay: qHTS Assay for Inhibitors of Aldehyde Dehydrogenase 1 (ALDH1A1); settings: Purified ALDH1A1, NADH fluorescence, propionaldehyde substrate; series mostly up to 75.3 µM
Sequence of UniProt P00352 (P00352 whole entry, looked up): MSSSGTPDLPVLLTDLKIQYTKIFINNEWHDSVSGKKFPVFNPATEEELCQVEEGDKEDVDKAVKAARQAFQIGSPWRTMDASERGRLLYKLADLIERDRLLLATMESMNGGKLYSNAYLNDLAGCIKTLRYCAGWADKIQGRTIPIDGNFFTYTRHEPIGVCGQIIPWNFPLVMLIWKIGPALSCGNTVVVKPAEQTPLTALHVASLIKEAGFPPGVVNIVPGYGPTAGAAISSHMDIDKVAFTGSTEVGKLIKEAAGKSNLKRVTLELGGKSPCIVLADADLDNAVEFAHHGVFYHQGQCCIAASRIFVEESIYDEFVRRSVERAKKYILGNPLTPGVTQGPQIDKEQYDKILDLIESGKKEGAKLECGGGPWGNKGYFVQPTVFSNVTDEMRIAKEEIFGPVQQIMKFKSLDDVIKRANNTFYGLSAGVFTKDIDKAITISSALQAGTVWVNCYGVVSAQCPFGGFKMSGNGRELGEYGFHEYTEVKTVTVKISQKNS
Potency is read from the fitted curve at half-maximal effect; tags tell the direction and shape of the fitted curve.

SMILES	Potency
Cc1ccc(NC(=O)CSc2nc(N)cc(=O)[nH]2)cc1S(=O)(=O)N1CCOCC1	inactive
C#C[C@]1(O)CCC2C3CCC4=CC(=O)CCC4C3CC[C@@]21C (stereo not given in full)	inconclusive [inhibitor, single point]
CCc1nc(SCC(=O)N2c3ccccc3CC2C)c2c(C)c(C)sc2n1 (stereo not given)	inactive
Cc1c(NC(=O)c2ccc(CN3CCc4ccccc4C3)cc2)c(=O)n(-c2ccccc2)n1C	inactive
CCOC(=O)C(=O)N1CCC(C(=O)OC)CC1	inactive
CC(C)CC(c1nnnn1Cc1ccco1)N1CCN(c2cccc(Cl)c2)CC1 (stereo not given)	inconclusive [inhibitor, single point]
CC(C)Oc1ccc(C(=O)/C(=C\c2cccs2)c2nc3ccccc3o2)cc1	inconclusive [inhibitor, partial curve]
Cc1ccc(NS(=O)(=O)c2ccc(OCC(=O)Nc3cccc([N+](=O)[O-])c3)c(C)c2)cc1	inactive
Cn1c(SCC(=O)c2ccc(-c3ccccc3)cc2)nnc1-c1ccco1	active: 10 µM
CCOc1cc(-c2ccccc2)nc(N)n1	inconclusive [inhibitor, single point]
COc1ccc(C(=O)n2cc(C(=O)c3cc(C)ccc3O)cn2)cc1OC	active: 0.158 µM
Cc1ccc(CSCC(=O)N2CCN(Cc3ccc4c(c3)OCO4)CC2)cc1	inconclusive [inhibitor, single point]
COCCNC(=O)/C(C#N)=C/c1cc(C(C)C)c(OC)cc1C	inactive
Cc1ccc(-c2nc3ncccn3c2NC(=O)C2CC2)cc1	inconclusive [inhibitor, single point]
COc1ccc(N2C(=O)CC(Sc3nnc(-c4ccccc4F)n3C)C2=O)cc1 (stereo not given)	active: 1.78 µM
O=C(/C=C/c1ccc2c(c1)OCO2)Nc1nc2ccccc2s1	inconclusive [inhibitor, partial curve]
Cc1ccccc1Oc1ncccc1C(=O)/C(C#N)=C/N(C)C	inconclusive [inhibitor, single point]
CCOC(=O)N1CCN(C(=O)Nc2ccc3nc(C)c(C)nc3c2)CC1	inconclusive [inhibitor, partial curve]
CN1CCN(C2=C(Cl)C(=O)N(C3CCCCC3)C2=O)CC1	inconclusive [inhibitor, single point]
C/C(=N/NC(=O)c1sc(NS(=O)(=O)c2ccccc2)nc1C)c1ccc(F)cc1	inconclusive [inhibitor, single point]
